Laboratory results: the supplement of paper PMC10986608
The other results are listed elsewhere or left out. Single values are uncertain, as repeats are few or missing.

system: Candida albicans DPL-15; assay: growth (OD600) after compound treatment (apparently relative to screen median) (relative growth (fraction; screen median 1.02)); DPL-15 is a caspofungin-resistant clinical isolate; higher = more fungal growth (less antifungal activity); conditions: 25 µM; RPMI 1640; 48 h; 30 °C

Row | SMILES | growth
1 | COC(=O)c1cc2c(c3c4ccccc4n(S(=O)(=O)c4ccccc4)c13)C(=O)N(Cc1cccc(F)c1)C2 | 1.02
2 | CCCOS(=O)(=O)N(SC(=S)OCC)C(C)(C)C | 1.11
3 | COc1ccccc1Cn1nc2c(c1CC(C)C)C(c1ccc3c(c1)OCO3)NC2=O (configuration not stated) | 0.92
4 | COC(=O)[C@@H]1[C@@H](O)[C@@]2(O)c3c(OC)cc(OS(=O)(=O)c4ccc(C)cc4)cc3O[C@@]2(c2ccc(OC)cc2)[C@H]1c1ccccc1 | 1.09
5 | Cc1nn(Cc2ccccc2)c2c1C(c1ccc3c(c1)OCO3)NC2=O (configuration not stated) | 1.02
6 | COc1ccc(N2C(=O)C(Nc3ccc4c(c3)OCO4)=CC2c2ccc(C(F)(F)F)cc2)cc1 (configuration not stated) | 1
7 | COc1ccccc1Cn1nc(CC(C)C)c2c1C(=O)NC2c1ccc(C)cc1 (configuration not stated) | 0.762
8 | COc1ccc(-c2ccc3c(n2)CCCN3C)cc1 | 1.18
9 | COc1ccc(-c2ccc3c(n2)CCCN3S(=O)(=O)c2ccccc2)cc1 | 0.946
10 | Cc1ccc(S(=O)(=O)N2CCCC3OCCCC3=C2c2ccc3c(c2)[nH]c2ccccc23)cc1 (configuration not stated) | 1.04
11 | Oc1c(CN2CCOCC2)cc2c(c1-c1c(O)c(CN3CCOCC3)cc3c1CCCC3)CCCC2 | 0.838
12 | COC(=O)C1=C(C)N(C)C(NCCc2ccccn2)=NC1c1ccc(Cl)cc1 (configuration not stated) | 1.11
13 | CCN(CC)C(=O)c1c(O)cc(O)cc1CC(=O)C(C)C | 1.08
14 | O=C1c2ccccc2-c2c1c(O)c1ccccc1c2O | 0.519
15 | COC(=O)C1=C(C)N(CCCOC(C)C)C(=S)NC1c1ccc(C(F)(F)F)cc1 (configuration not stated) | 1.09
16 | CO[C@@H]1[C@H](O)CC[C@]2(O)CN(c3ccc(Oc4ccccc4)cc3)[C@](C)([C@H](O)CC=C(C)C)[C@@H]12 | 0.859
17 | COc1ccc(N2C(=O)C3=C(C(c4ccccc4)=NCCN3C)C2c2ccc(C)cc2)cc1 (configuration not stated) | 0.943
18 | CN1CC2CN(C(=O)c3c(O)cc(O)cc3NC3Cc4ccccc4C3)CC2C1 (configuration not stated) | 0.879
19 | C#CCNC(=O)c1nnc2c3ccccc3n(COC)c2n1 | 1.06
20 | CC(=O)OC[C@H]1O[C@H](C#Cc2cccc(F)c2)C=C[C@@H]1OC(C)=O | 1.28
21 | CC(C)(C)NS(=O)(=O)OCCCB1OC(C)(C)C(C)(C)O1 | 1.02

Row | SMILES | growth
22 | COc1ccc2c(c1)O[C@@H](c1cccc(C(F)(F)F)c1)[C@H](OC(=O)Nc1cc(OC)c(OC)c(OC)c1)C2=O | 1
23 | CS(=O)(=O)Oc1c(CC23CCCCC2=Nc2c(Cl)cccc23)occc1=O (configuration not stated) | 1.26
24 | CN(Cc1ccccn1)CC1CCCN(CCc2ccccc2)C1 (configuration not stated) | 0.942
25 | C=COCCN1C=C(C(=O)OCC)C(c2ccccc2)NC1=O (configuration not stated) | 0.969
26 | COc1cc(CC=C(C)C)c2c(=O)c3ccccc3oc2c1O | 0.985
27 | COc1ccc(Cn2nc(C)cc2Nc2cc(O)cc(O)c2C(=O)N(C)Cc2ccccc2)cc1 | 0.931
28 | CC(C)(C)C[C@@H](O)COc1cc2c(cc1C1(c3cc4c(cc3OC[C@H](O)CC(C)(C)C)OCO4)C(=O)Nc3ccc(F)cc31)OCO2 | 1.13
29 | COC(=O)C1=C(C)[C@@]2(C)C[C@H]3[C@@]4(C)CC[C@H](O)C(C)(C)[C@@H]4CC[C@@]3(C)OC2=C(C)C1=O | 1.11
30 | COC(=O)C1=C(C)N(C)C(NCc2ccc(OC)cc2)=NC1c1ccc(F)cc1 (configuration not stated) | 0.944
31 | COCn1c(-c2nc3nccnc3n2COC)nc2nccnc21 | 1.09
32 | COC(=O)[C@@H]1[C@@H](O)[C@@]2(O)c3c(OC)cc(F)cc3O[C@@]2(c2ccc(Cl)cc2)[C@H]1c1ccccc1 | 1.05
33 | CC#CCOc1c(-c2ccccc2O)oc2ccccc2c1=O | 1.14
34 | CCN1C(NCc2ccc3c(c2)OCO3)=N[C@@H](c2cccc(F)c2)C(C(=O)OC)=C1C | 1.05
35 | CC(C)(C)NS(=O)(=O)OC1[C@H]2C[C@@H]3C[C@@H](C[C@H]1C3)C2 (some centres not stated) | 1.08
36 | C=C(C)C[C@H](O)COc1cc2c(cc1C1(c3cc4c(cc3OC[C@@H](O)CC(=C)C)OCO4)C(=O)Nc3cc(F)ccc31)OCO2 | 1.16
37 | CC1(C)CN=C(c2ccccc2)C2=C(N1)C(=O)NC2c1ccc2c(c1)OCO2 (configuration not stated) | 0.962
38 | COC(=O)C1=C(C)N(C)C(NCC2CC2)=NC1c1ccc(C(F)(F)F)cc1 (configuration not stated) | 1.02
39 | OC[C@@H](Cc1ccc2c(c1)OCO2)[C@@H](CO)Cc1ccc2c(c1)OCO2 | 0.925
40 | COc1ccc(-c2[nH]c3cc(F)cc(F)c3c(=O)c2O)cc1 | 0.648
41 | CN1CCN=C(c2ccccc2)C2=C1C(=O)N(c1ccccc1)C2c1ccc(Br)cc1 (configuration not stated) | 0.887
42 | COc1ccc(N2C(=O)c3nn(C)c(-c4ccccc4)c3C2c2ccc(Br)cc2)cc1 (configuration not stated) | 1.03

Row | SMILES | growth
43 | Clc1cc2ccccc2c(-c2ccccc2)n1 | 0.992
44 | C=Cc1cc(O)c2c(=O)c3ccccc3oc2c1 | 1.11
45 | COc1ccc(-c2cnc3c(-c4ccccn4)cnn3c2N)cc1 | 1.02
46 | Cc1cc(C)cc(-n2nc3c(c2-c2ccccc2)C(c2ccc4c(c2)OCO4)NC3=O)c1 (configuration not stated) | 0.899
47 | COC(=O)c1nnc(C(=O)OC)c2c1c1ccccc1n2S(=O)(=O)c1ccc(C)cc1 | 1.33
48 | COc1ccc(N2C(=O)c3[nH]nc(CC(C)C)c3C2c2cncc(OC)c2)cc1 (configuration not stated) | 1.55
49 | COC[C@H](O)/C=C/[C@]1(C)CCCC[C@H]1NC(=O)OC | 1.11
50 | C=CCC12OC1C1(OCCCO1)C(CO[Si](c1ccccc1)(c1ccccc1)C(C)(C)C)=C(Br)C2=O (configuration not stated) | 1.19
51 | COC(=O)C1=C(C)NC(=O)NC1c1ccc(OC)cc1 (configuration not stated) | 0.99
52 | C=CCN1C(=O)C2=C(C(CC(C)C)=NCC(C)(C)N2)C1c1ccccc1 (configuration not stated) | 1.06
53 | CCOC(=O)c1cc2nc(SC)[nH]c(=O)c2c(C(=O)OCC)n1 | 1.25
54 | COc1cc(O)c2c(=O)c3c(CC=C(C)C)ccc(O)c3oc2c1 | 0.943
55 | O=c1cccc(CCCc2ccccc2)[nH]1 | 0.996
56 | COC(=O)[C@]12Oc3ccc(I)c(O)c3C(=O)C1=C(OC)CC[C@@H]2O | 1.11
57 | COC(=O)[C@@H]1[C@@H](c2ccccc2)[C@]2(c3ccc(OC)cc3)Oc3cc(OC)cc(OC)c3[C@@]23NC(c2ccc(N(C)C)cc2)=N[C@@]13O | 1.09
58 | COC(=O)[C@@]12Oc3ccc(-c4cccc(C(=O)N(C)OC)c4)c(O)c3C(=O)C1=C(N)C[C@H](C)[C@H]2O | 1.12
59 | CC(C)CC1=NCCNC2=C1C(c1ccc(F)cc1)N(Cc1ccccc1)C2=O (configuration not stated) | 0.956
60 | C[C@@]12C(=O)[C@]3(C)C=C[C@@]1(C)OC[C@]21C=C[C@H]3O1 | 0.979
61 | COC[C@@H](O)[C@H]1OCc2oc3ccccc3c2[C@@H]1/C=C/c1ccccc1 | 0.832
62 | COc1cccc(N2C(=O)c3[nH]nc(CC(C)C)c3C2c2ccsc2)c1 (configuration not stated) | 1.09
63 | COC(=O)[C@H]1C(=O)[C@@]2(Nc3ccccc3)c3c(OC)cc(OC)cc3O[C@@]2(c2ccc(OC)cc2)[C@@H]1c1ccccc1 | 0.985

Row | SMILES | growth
64 | Cc1ccc2[nH]c3nc4cccnc4cc3c2c1 | 0.76
65 | COc1ccc(N2C(=O)c3[nH]nc(CC(C)C)c3C2c2ccc(F)cc2)cc1 (configuration not stated) | 0.896
66 | C/C=C/C=C/C(=O)c1cc(C)c(OCC(=O)O)c(C)c1O | 1.47
67 | CC#CCN1C(=O)NC(c2ccccc2)C(CO)=C1C (configuration not stated) | 1.13
68 | CC(=O)C1=C(C)N(Cc2ccc(Cl)cc2)C(=S)NC1c1ccc(Cl)cc1 (configuration not stated) | 0.923
69 | CC(=O)C1=C(C)N(Cc2cccc(Cl)c2)C(=S)NC1c1cccc(Br)c1 (configuration not stated) | 1.47
70 | CC(C)(O)Cn1nc2cc1-c1cccc(c1)C(=O)NCC1(CCCCC1)CC(=O)N[C@@H](c1ccccc1)COC2 | 0.94
71 | CCN1C(=O)NC(c2ccccc2)C(C(=O)OC)=C1C (configuration not stated) | 1.37
72 | COC(=O)CC/C=C/[C@]12Oc3cc(OC)c4c(C)cc(O)c5c4c3[C@@H](OC5=O)[C@H]1C[C@@H](C)O2 | 1.08
73 | COc1cc2c(c(OC)c1OC)[C@@]1(c3ccccc3)CCCC[C@H]1C2NC(=O)C(F)(F)F (some centres not stated) | 0.806
74 | COC(=O)C1=C(C)N(C)C(NCCCOC(C)C)=NC1c1ccc(Cl)cc1 (configuration not stated) | 0.999
75 | C#CCC(C)(C)CNC(=O)CC1(CNC(=O)c2cccc3cnnn23)CCCCC1 | 1.07
76 | CC1=C[C@@]2(CCCO)c3cc4c(cc3CC[C@@]2(C)[C@@H]1C)[nH]c1ccccc14 | 1.02
77 | CC(C)Cc1n[nH]c2c1C(c1ccccc1Br)N(c1ccc3c(c1)OCO3)C2=O (configuration not stated) | 1.06
78 | COc1ccc(OC[C@@H]2C=C(C)C[C@]3(O2)C(=O)N(Cc2ccccc2)c2ccccc23)cc1 | 0.868
79 | COC(=O)[C@]1([C@@H]2OC(=O)C[C@@H]2C)CC(=O)c2c(O)cccc2O1 | 1.08
80 | CO[C@@H]1[C@H](O)CC[C@]2(O)CN(Cc3ccc4c(c3)OCO4)[C@](C)([C@H](O)CC=C(C)C)[C@@H]12 | 1.13
81 | CC(=O)C1=C(C)N(Cc2ccc(F)cc2)C(=S)NC1c1ccc(Br)cc1 (configuration not stated) | 0.955
82 | CCOC(=O)/C=C/NC(=O)c1ccccc1 | 0.836
